Source: article PMC6919601, “Identification of Plasmodium dipeptidyl aminopeptidase allosteric inhibitors by high throughput screening” (PLoS ONE, 2019)
The whole screen tested about 110,000 compounds, of which about 230 (0.21%) showed an effect of 50% or more. This is one part of the list.

Target: DPAP1 (Plasmodium falciparum, UniProt Q8IIJ9)
Assay: primary screen, percent inhibition; read by cleavage of a fluorogenic dipeptide substrate; higher = more effect of the substance
Design: species or system P. falciparum D10 trophozoite lysates; single well
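Note: 30 min substrate incubation versus DMSO and 10 µM JCP410 controls.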

DPAP1, sequence (Q8IIJ9 whole entry, looked up): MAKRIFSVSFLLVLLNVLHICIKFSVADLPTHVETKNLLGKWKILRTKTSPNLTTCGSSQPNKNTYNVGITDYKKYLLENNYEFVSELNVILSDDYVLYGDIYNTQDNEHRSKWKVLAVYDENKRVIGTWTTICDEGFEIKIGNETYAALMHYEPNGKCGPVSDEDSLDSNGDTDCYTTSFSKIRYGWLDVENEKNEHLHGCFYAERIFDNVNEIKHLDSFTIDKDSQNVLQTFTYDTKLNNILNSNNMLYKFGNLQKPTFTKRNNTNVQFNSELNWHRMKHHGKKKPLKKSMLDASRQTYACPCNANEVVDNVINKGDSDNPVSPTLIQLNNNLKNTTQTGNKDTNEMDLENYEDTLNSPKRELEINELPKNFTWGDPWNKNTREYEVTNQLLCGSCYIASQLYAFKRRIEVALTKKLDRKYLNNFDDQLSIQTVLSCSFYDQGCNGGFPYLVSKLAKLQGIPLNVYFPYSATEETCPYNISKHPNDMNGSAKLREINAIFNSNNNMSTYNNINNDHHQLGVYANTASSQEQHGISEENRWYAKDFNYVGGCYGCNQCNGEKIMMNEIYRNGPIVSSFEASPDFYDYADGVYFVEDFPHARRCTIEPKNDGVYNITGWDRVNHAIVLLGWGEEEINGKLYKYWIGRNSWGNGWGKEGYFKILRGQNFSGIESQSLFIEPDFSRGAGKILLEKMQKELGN

Row | SMILES | % Inhibition @ 10 uM
1 | COCc1cc(C)n(CC(=O)c2ccccc2)c(=O)c1C#N | 1.13%
2 | COc1cc(/C=C2/S/C(=N/c3ccccc3)N(C)C2=O)cc(Cl)c1O | 6.69%
3 | Cc1ccc(COc2ccc(C3C(C#N)=C(N)Oc4cc(O)ccc43)cc2)cc1 (stereo not drawn) | 3.87%
4 | Cc1nc2ccccc2c2oc(C(=O)N3CCN(C(=O)c4ccco4)CC3)cc12 | -7.13%
5 | O=C(CNc1ccc2ccccc2c1)c1ccc(Cl)cc1 | -5.33%
6 | CCC(C(=O)NCc1ccccc1OC)n1nc(C)c2sc3ccccc3c2c1=O (stereo not drawn) | 3.39%
7 | CCC[C@@H](/C=C/S(=O)(=O)c1ccccc1)NC(=O)[C@H](CC1CCCCC1)/N=C/NS(=O)(=O)c1ccccc1 | -3.14%
8 | Oc1ccccc1-c1cc(-c2ccccc2)nc(N2CCNCC2)n1 | -4.26%
9 | CCn1cc(C(=O)OCc2cc(C)ccc2C)c(=O)c2ccc(C)nc21 | -5.28%
10 | COc1ccccc1-c1nsnc1C(=O)O | -0.969%
11 | CC1=C(C(=O)Nc2cc(C)ccn2)C(c2cccc(Oc3ccccc3)c2)C2=C(O)CCCC2=N1 (stereo not drawn) | 5.9%
12 | COCCNC(=O)C1c2ccccc2C(=O)N(CCOC)C1c1cn(C)c2ccccc12 (stereo not drawn) | 7.15%
13 | O=C(NCCCNC(=O)c1cccnc1)c1cccnc1 | 1.91%
14 | O=C(O)c1ccc(-c2ccc(/C=C3/Sc4ccccc4C3=O)o2)cc1 | 1.29%
15 | O=[N+]([O-])c1cccc(C2N=C(c3ccccc3)NC(c3ccccc3)=N2)c1 | 6.94%
16 | Oc1cccc(Nc2nc(-c3ccncc3)cs2)c1 | 1.72%
17 | NC(=O)C1CCN(Cc2cccc(Br)c2)CC1 | -1.78%
18 | CN(C)c1cc[n+](Cc2ccccc2)cc1 | -4.64%
19 | CC1=C(C(=O)Nc2cccnc2)C(c2ccncc2)n2ncnc2N1 (stereo not drawn) | 4.09%
20 | COC(=O)C1=C(C)N(Cc2cccnc2)C(=O)/C1=C\c1ccccc1C(F)(F)F | 3.79%
21 | O=C1CCC2(CCC(=O)N(Cc3ccccc3)C2=O)C(=O)N1Cc1ccccc1 | 0.661%
22 | CCOC(=O)CN1CCN(c2ccc([N+](=O)[O-])cc2)CC1 | -4.58%
23 | Cc1cc(C)nc(NS(=O)(=O)c2ccc(N/C=C\C(=O)c3ccc4c(c3)OCO4)cc2)n1 | 0.674%
24 | O=c1/c(=C/c2c[nH]nc2-c2cccs2)sc2nc3ccccc3n12 | -0.703%
25 | COc1ccc(-n2nc3c(c2NC(=O)c2cccc(C(F)(F)F)c2)CS(=O)(=O)C3)cc1 | 3.66%

Row | SMILES | % Inhibition @ 10 uM
26 | Cn1c(C(=O)O)c(CNCCc2ccccc2Cl)c2ccccc21 | -6.04%
27 | CS/C(=N\Cc1ccccc1)Nc1cc(-c2ccccc2)[nH]n1 | -4.07%
28 | COc1cccc(OC)c1C(=O)Nc1ccc(S(=O)(=O)N2CCC(C)CC2)cc1 | -1.11%
29 | COc1cc(OC)cc(C(=O)Nc2ccccc2Br)c1 | -2.32%
30 | CN1CCCN(C2CCCCCCC2)CC1 | 2.7%
31 | COc1ccc(N(CC(=O)Nc2cccc(C(F)(F)F)c2)S(C)(=O)=O)cc1 | -1.42%
32 | C=CCN(Cc1nc(-c2ccc(Cl)cc2)no1)C(=O)NCC | 0.00706%
33 | CC(C)N(C(=O)c1ccc(C(=O)Nc2ccccc2)cc1)C(C)C | -2%
34 | Cc1cc(C)c2c(n1)SCC(=O)N2CC(=O)NC1CCCCC1C (stereo not drawn) | 2.65%
35 | CCC(=O)Nc1nc2nc(C)c(C)c(O)n2n1 | -6.81%
36 | Nc1c(S(=O)(=O)Cc2ccc(Cl)cc2)sc2nc3c(cc12)CCCC3 | -3.75%
37 | CC1(C)CC(=O)C2=C(C1)OC(N)=C(C#N)C2c1cccc(Cl)c1Cl (stereo not drawn) | 1.54%
38 | CCCC(=O)Nc1ccc(NC(=O)C(C)C)c(OC)c1 | 15.1%
39 | O=C(O)CNC(=O)/C=C/c1ccc(Cl)cc1Cl | 2.35%
40 | Cc1ccc(NC(=O)C2C3C=CC(C3)C2C(=O)O)cc1 (stereo not drawn) | 1.64%
41 | O=C(Nc1ccc(S(=O)(=O)NC2CCCCC2)cc1)C1CC1 | -8.88%
42 | CCC(C(=O)Nc1c(C)cc(C)cc1C)N1CCCCCC1 (stereo not drawn) | -0.415%
43 | Cc1cc(C)c2[nH]ncc2c1 | -1.7%
44 | Cc1ccc(NC(=O)c2cnn(-c3ccccc3)c2C)c(C)c1 | -2.85%
45 | Cc1ccc(NC(=O)Nc2c(C)cc(C)cc2C)cc1 | 3.09%
46 | Cc1ccc2oc(=O)c3cnn(CC(=O)NC(C)c4ccc5c(c4)OCCO5)c3c2c1 (stereo not drawn) | -3.45%
47 | Cc1c(C(=O)N2CCOCC2)sc2ncn(CC(=O)N3CCC(C)CC3)c(=O)c12 | 5.85%
48 | N#Cc1ccc(Oc2ccc(N3C(=O)C4C5C=CC(C5)C4C3=O)cc2)cc1 (stereo not drawn) | 2.09%
49 | Cc1c(CNC(C)CCc2ccccc2)c(C(=O)O)c(C)n1Cc1cccc(Cl)c1 (stereo not drawn) | 4.53%
50 | CCN1C(=O)/C(=C\c2cccc(O)c2)S/C1=N/c1ccccc1 | -3.37%

Row | SMILES | % Inhibition @ 10 uM
51 | CCOC(=O)c1c(C)n(-c2ccc(C)cc2)c2ccc(OCC(O)CN3CCN(CCO)CC3)cc12 (stereo not drawn) | 0.275%
52 | COCCCNC(=O)CSc1[nH]c(-c2ccc(F)cc2)nc1-c1ccc(C)cc1 | 0.163%
53 | Cc1cc(C)nc(NC(=O)COc2ccc(Cl)cc2)c1 | -2.15%
54 | O=C(O)c1cccc(NC(=O)c2cccc(C(=O)Nc3cccc(C(=O)O)c3)c2)c1 | 3.25%
55 | CC1(C)CC(=O)C2=C(C1)Oc1ccccc1C2CC(=O)c1ccc(O)cc1 (stereo not drawn) | -2.15%
56 | COc1ccc(Cl)cc1C(=O)NCCc1nc2ccccc2[nH]1 | -0.348%
57 | COc1cc(/C=C2/SC(=O)NC2=O)cc(OC)c1OC | -4.75%
58 | COC(=O)c1ccc(-c2ccco2)n1CC(=O)N1CCN(C(=O)c2ccco2)CC1 | -3.8%
59 | COC(=O)c1ccc(C2CC(=O)NC3=C2C(=O)CC(c2ccccc2Cl)C3)cc1 (stereo not drawn) | 1.39%
60 | COc1ccc(C2C(=O)N(C3CCCCC3)CC(=O)N2CCc2ccccc2)cc1OC (stereo not drawn) | -2.14%
61 | CC(=O)c1sc(Nc2ccc(N(C)C)cc2)nc1C | -2.54%
62 | CCOC(=O)N1CCN(C(=O)c2c(C)oc3c2C(=O)c2ccccc2C3=O)CC1 | -5.41%
63 | O=C(Nc1ccccc1C(F)(F)F)c1ccccc1Cl | -3.26%
64 | Cc1ccc(-c2csc(NC(=O)C3C4CCC(C4)C3C(=O)O)n2)cc1C (stereo not drawn) | -0.67%
65 | CCOCCCN1C(=O)C(O)=C(C(C)=O)C1c1cccs1 (stereo not drawn) | 2.02%
66 | CN(C)CCN(C)CC1CCCCC1 | -5.26%
67 | Cc1ccc(NC(=O)Cn2c(-c3nonc3N)nc3ccccc32)cc1F | 10%
68 | CSc1ccc(CN(CCO)Cc2ccccc2)cc1 | 1.26%
69 | O=C(Nc1nc(-c2ccc(F)cc2)cs1)c1cnccn1 | 2.69%
70 | CC/N=C1\S/C(=C\c2cc(OCC)c(O)cc2Br)C(=O)N1CC | 0.205%
71 | CCOCCCNC(=O)c1cc2c(=O)n3cccc(C)c3nc2n1C | -1.87%
72 | O=C(Nc1ccc(Cl)cc1)Nc1ccc(F)c(Cl)c1 | 6.06%
73 | CC1=CC2=NC(=O)/C(=C\c3ccc(Sc4ccc(C)cc4)o3)C(=N)N2O1 | 1.79%
74 | CS(=O)(=O)N(CC(=O)N1CCN(c2cccc(Cl)c2)CC1)c1cc(Cl)cc(Cl)c1 | 12.2%
75 | Cc1cc(O)c(C2=NCCSC(c3ccc(O)c([N+](=O)[O-])c3)C2)c(=O)o1 (stereo not drawn) | 2.94%

Row | SMILES | % Inhibition @ 10 uM
76 | Cc1ccc(-n2nc3c(c2NC(=O)C24CC5CC(CC(C5)C2)C4)CS(=O)(=O)C3)cc1 | -1.12%
77 | COc1cccc(S(=O)(=O)Nc2ccc(C(=O)N3CCCCCC3)cc2)c1 | 1.1%
78 | C=CCn1c(SCC(=O)Nc2cc(OC)ccc2OC)nc2sc(C)cc2c1=O | -1.38%
79 | CCCCn1c(=O)c(C(=O)Nc2nc(-c3ccccc3)cs2)c(O)c2ccccc21 | 2.22%
80 | O=C(Nc1cccnc1Cl)c1cc2nc(-c3ccc4c(c3)OCO4)cc(C(F)(F)F)n2n1 | 0.0265%
81 | COc1ccc(-c2cc3c4c(C)n(C)c(C)c4c(C)nn3c2)cc1 | -4.75%
82 | NC(=O)C12CC3CC(C1)C(=O)C(C3)C2 | 0.815%
83 | COc1c(F)c(F)c(/C=C/C(=O)O)c(F)c1F | -1.33%
84 | COc1ccc(COC(=O)N[C@@H](CC(C)C)C(=O)NCC#N)cc1OC | 4.63%
85 | Cc1ccc(-c2c(C#N)c(N)nc3c2CCCC3)o1 | 3.74%
86 | CCc1s/c(=N\C(=O)c2cccnc2)n(C)c1-c1ccc(OC)cc1 | 1.28%
87 | Cc1ccc(N2CC(C(=O)NCc3cccs3)CC2=O)cc1 (stereo not drawn) | -4.7%
88 | N#CCNC(=O)[C@H](Cc1cc(I)c(O)c(I)c1)NC(=O)c1ccc(-c2ccccc2)cc1 | -1.41%
89 | CCC(C)NC(=O)c1ccc2snnc2c1 (stereo not drawn) | -0.0235%
90 | COCCNC(=O)c1[nH]c2ccccc2c1Sc1ccc(Cl)cc1 | -1.33%
91 | Cc1ccc(N2C(=O)c3ccccc3NC2c2cccc([N+](=O)[O-])c2)cc1 (stereo not drawn) | -5.2%
92 | CCc1ccc(C2C(C(=O)O)c3ccccc3C(=O)N2C)cc1 (stereo not drawn) | 0.231%
93 | CCOC(=O)c1cnc2ccc(OC)cc2c1O | 1.19%
94 | Cc1cccc(N(CC(=O)N2CCCC2)S(=O)(=O)c2ccccc2)c1 | 3.17%
95 | C=CCn1c(SCC(=O)NC2CCCC2)nnc1-c1cccnc1 | 0.503%
96 | O=C(NCCN1CCCCCC1)c1cc(-c2ccncc2)nc2ccccc12 | -0.519%
97 | Cc1cc(N2CCCCCC2)n2c(nc3ccccc32)c1C#N | 21.6%
98 | OCCOCCN1CCN(C2CCCCCCC2)CC1 | -1.81%
99 | CCC1(CC)C(=O)N=C(NCCc2ccc(O)cc2)NC1=O | 5.84%
